This note sets out measurements from the antibiotic and cytotoxicity screens of Wong et al. (2023).

This is one part of the list.

The experiment concerns HSkMC (human skeletal muscle cells). The experiment can be described thus: cytotoxicity call (relative viability < 0.9). The settings on record: 10 µM.
With `C[C@@H]1CN([C@@H](C)CO)C(=O)c2cccc(NS(=O)(=O)c3cn(C)cn3)c2O[C@@H]1CN(C)S(C)(=O)=O`, the cytotoxicity call was “inactive”.
On to `COc1ccc2c3c(n(c2c1)C)[C@@H](CO)N(CC1CCOCC1)C[C@]13CN(C1)C(=O)c1cccc(c1)F`, for which the cytotoxicity call was “inactive”.
On to `COc1ccc(NC(=O)N(C)C[C@@H]2OCCCC[C@H](C)Oc3ccc(NC(=O)Cc4ccccc4)cc3C(=O)N([C@H](C)CO)C[C@@H]2C)cc1`, for which the cytotoxicity call was “inactive”.
On to `C[C@@H]1CCCCO[C@H](CN(C)S(=O)(=O)c2ccc(F)cc2)[C@@H](C)CN([C@H](C)CO)C(=O)c2cc(NC(=O)Nc3ccc4c(c3)OCO4)ccc2O1`, for which the cytotoxicity call was “inactive”.
Then `CC(C)NC(=O)Nc1ccc2c(c1)CC(=O)N([C@H](C)CO)C[C@@H](C)[C@H](CN(C)Cc1ccc(C(=O)O)cc1)O2`, with “inactive”; and `C[C@@H]1CN([C@H](C)CO)C(=O)c2cc(NC(=O)CCC(F)(F)F)ccc2O[C@@H](C)CCCCO[C@H]1CN(C)C(=O)CCC(F)(F)F`, with “inactive”.
`COc1ccc(-c2coc3cc(OC)ccc3c2=O)c(O)c1`: the cytotoxicity call is “inactive”.
`C[C@H](CO)N1C[C@H](C)[C@H](CN(C)CC2CC2)Oc2ccc(NC(=O)Cn3cnnn3)cc2CC1=O`: the cytotoxicity call was “inactive”.
On to `O=c1[nH]c(=O)n([C@@H]2C[C@@H](O)[C@@H](CO)O2)cc1F`, for which the cytotoxicity call is “inactive”.
On to `CC(=O)Nc1c(I)c(C(=O)N[C@@H]2[C@@H](O)[C@H](O)[C@@H](CO)O[C@@H]2O)c(I)c(N(C)C(C)=O)c1I`, for which the cytotoxicity call was “inactive”.
As to `COc1ccc(NC(=O)Nc2ccc3c(c2)C(=O)N([C@H](C)CO)C[C@@H](C)[C@H](CN(C)C(=O)Nc2ccc(C(F)(F)F)cc2)O3)cc1`, the cytotoxicity call is “inactive”.
In the case of `C[C@@H]1CN([C@@H](C)CO)C(=O)Cc2cc(NS(=O)(=O)c3cn(C)cn3)ccc2O[C@@H]1CN(C)C(=O)Nc1ccc(F)cc1`, the cytotoxicity call is “inactive”.
With `CC(=O)N1CCC2(CCCN2)CC1`, the cytotoxicity call was “inactive”.
On to `C[C@H](CO)N1C[C@H](C)[C@H](CN(C)C(=O)Nc2ccc3c(c2)OCO3)OCCCC[C@H](C)Oc2ccc(NC(=O)NC3CCCCC3)cc2C1=O`, for which the cytotoxicity call is “inactive”.
For `C[C@@H]1CN([C@@H](C)CO)S(=O)(=O)c2ccc(C#CCN(C)C)cc2O[C@@H]1CN(C)C(=O)CN(C)C`, the cytotoxicity call is “inactive”.
As to `C[C@H](CO)N1C[C@H](C)[C@@H](CN(C)C(=O)Nc2ccc3c(c2)OCO3)OCCCC[C@H](C)Oc2ccc(NC(=O)Nc3ccc(F)cc3)cc2C1=O`, the cytotoxicity call was “inactive”.
With `C[C@H]1CN([C@@H](C)CO)C(=O)Cc2cc(NC(=O)Cn3cnnn3)ccc2O[C@H]1CN(C)S(=O)(=O)c1ccccc1`, the cytotoxicity call is “inactive”.
As to `O=C(C[C@@H]1C=C[C@@H](NC(=O)c2cccnc2)[C@@H](CO)O1)NCc1ccncn1`, the cytotoxicity call is “inactive”.
As for `COc1ccccc1-c1ccc2c(c1)O[C@H](CN(C)S(=O)(=O)c1ccccc1)[C@H](C)CN([C@@H](C)CO)S2(=O)=O`, the entry is “inactive”; as for `C[C@@H]1CCCCO[C@H](CN(C)C(=O)c2ccccc2)[C@@H](C)CN([C@@H](C)CO)C(=O)c2cc(NC(=O)Nc3ccc(C(F)(F)F)cc3)ccc2O1`, “inactive”; as for `Cc1ccc(S(=O)(=O)N(C)C[C@@H]2Oc3ncc(Br)cc3C(=O)N([C@@H](C)CO)C[C@H]2C)cc1`, “inactive”.
For `CCCC(=O)Nc1ccc2c(c1)OC[C@H](C)N(Cc1ccc(-c3ccccn3)cc1)C[C@H](C)[C@@H](OC)CN(C)C2=O`, the cytotoxicity call was “inactive”.
Then `COCC(=O)Nc1ccc2c(c1)C(=O)N(C)C[C@H](OC)[C@@H](C)CN(C(=O)Cc1cccnc1)[C@@H](C)CO2`, with “inactive”; and `CC(C)NC(=O)Nc1cccc2c1O[C@@H](CN(C)S(=O)(=O)c1cccs1)[C@@H](C)CN([C@@H](C)CO)C2=O`, with “inactive”; and `CO[C@H]1CN(C)C(=O)c2cc(NS(C)(=O)=O)ccc2OC[C@@H](C)N(C(=O)CN(C)C)C[C@H]1C`, with “inactive”.
Take `COc1ccc(CN(C)C[C@H]2OCCCC[C@@H](C)Oc3ccc(NS(=O)(=O)c4ccc(Cl)cc4)cc3C(=O)N([C@H](C)CO)C[C@H]2C)cc1`: the cytotoxicity call was “inactive”.
Take `NC(=O)C1N=CN([C@@H]2O[C@H](CO)[C@@H](O)[C@H]2O)C1=O` (stereo not given in full): the cytotoxicity call was “inactive”.
In the case of `C[C@H](CO)N1C[C@H](C)[C@@H](CN(C)S(=O)(=O)c2ccccc2)Oc2ncc(Br)cc2C1=O`, the cytotoxicity call is “inactive”.
As for `Cc1noc(C)c1NC(=O)Nc1ccc2c(c1)C(=O)N([C@H](C)CO)C[C@H](C)[C@@H](CN(C)CC1CCCCC1)OCCCC[C@@H](C)O2`, the entry is “inactive”; as for `CCCN(C)C[C@H]1OCCCC[C@@H](C)Oc2ccc(NS(=O)(=O)c3cn(C)cn3)cc2C(=O)N([C@@H](C)CO)C[C@H]1C`, “inactive”.
Regarding `Cc1ccc(S(=O)(=O)N(C)C[C@H]2Oc3ccc(NC(=O)Nc4ccc(C(F)(F)F)cc4)cc3CC(=O)N([C@H](C)CO)C[C@H]2C)cc1`, the cytotoxicity call is “active”.
As for `C[C@@H]1CN([C@@H](C)CO)C(=O)c2cc(NC(=O)Cc3ccccc3)ccc2O[C@@H](C)CCCCO[C@@H]1CN(C)Cc1ccc(C(F)(F)F)cc1`, the cytotoxicity call is “inactive”.
With `C[C@@H]1CN([C@H](C)CO)S(=O)(=O)c2ccc(C#CCN(C)C)cc2O[C@H]1CN(C)S(C)(=O)=O`, the cytotoxicity call was “inactive”.
`CO[C@H](CN(C)C(=O)c1ccccc1F)[C@@H](C)CN([C@H](C)CO)S(=O)(=O)c1ccc(Cl)cc1`: the cytotoxicity call is “inactive”.
For `NCC(=O)NCC(=O)O`, the cytotoxicity call is “inactive”.
In the case of `COc1ccccc1S(=O)(=O)N[C@H]1C=C[C@@H](CC(=O)N2CCOCC2)O[C@H]1CO`, the cytotoxicity call is “inactive”.
On to `Cn1cnc(S(=O)(=O)N2C[C@H](O)COC[C@@H]3O[C@H](CC(=O)NCc4cccc(F)c4)CC[C@H]32)c1`, for which the cytotoxicity call was “inactive”.
As to `CC(=CCO)CCC(C)CCCC(C)CCCC(C)C` (stereo not given), the cytotoxicity call was “active”.
In the case of `C[C@H]1CN([C@@H](C)CO)C(=O)c2cc(NC(=O)Cn3cnnn3)ccc2O[C@@H]1CN(C)C(=O)Nc1ccc(F)cc1`, the cytotoxicity call is “inactive”.
Consider `C[C@@H]1CCCCO[C@@H](CN(C)C(=O)Nc2cccc3ccccc23)[C@@H](C)CN([C@H](C)CO)C(=O)c2cc(NC(=O)Nc3cccc4ccccc34)ccc2O1`, for which the cytotoxicity call is “inactive”.
